Results: PubChem BioAssay AID493170 (National Center for Advancing Translational Sciences (NCATS), 2011)
This list was built around the results that the source calls inconclusive (neither active nor inactive); the mix of calls is not that of the screen. No potency is given beside an inconclusive call; the fits are too rough. The source made the active and inactive calls. Calls come from the whole dose curve; as a rule, active = well fitted inhibition curve with a large enough effect; inconclusive = small, poorly fitted or top-dose-only effect, or effect the other way; inactive = flat fitted curve, though single readings scatter.

Biological target: Ubiquitin carboxyl-terminal hydrolase 2 (Homo sapiens) (UniProt O75604)
Chain of UniProt O75604 (O75604 whole entry, looked up): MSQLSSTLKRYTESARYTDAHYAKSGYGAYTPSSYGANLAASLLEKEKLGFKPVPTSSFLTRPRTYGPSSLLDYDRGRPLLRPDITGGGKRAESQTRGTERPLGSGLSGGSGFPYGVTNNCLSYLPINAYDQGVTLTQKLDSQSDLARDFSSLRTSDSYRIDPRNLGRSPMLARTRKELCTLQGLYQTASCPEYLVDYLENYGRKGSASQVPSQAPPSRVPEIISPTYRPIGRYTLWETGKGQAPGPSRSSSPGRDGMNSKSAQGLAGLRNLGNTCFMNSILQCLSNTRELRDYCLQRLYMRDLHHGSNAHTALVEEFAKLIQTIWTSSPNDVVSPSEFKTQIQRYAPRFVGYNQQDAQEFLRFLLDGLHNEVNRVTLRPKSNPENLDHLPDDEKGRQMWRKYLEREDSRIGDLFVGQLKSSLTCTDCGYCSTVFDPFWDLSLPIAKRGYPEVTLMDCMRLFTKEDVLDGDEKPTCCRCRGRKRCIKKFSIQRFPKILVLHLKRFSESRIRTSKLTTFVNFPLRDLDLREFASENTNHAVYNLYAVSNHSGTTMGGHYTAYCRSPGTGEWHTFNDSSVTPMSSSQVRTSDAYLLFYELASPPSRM
Assay: Ub-rhodamine 110 based assay for inhibitors Ubiquitin-specific Protease USP2a; note: nearly all actives have a fitted effect of over 50% in size
Summary of the method: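 Kinetic fluorescence (485/531 nm) read each minute over 7 min after adding Ub-Rhod110 (150 nM final) to USP2a (5 nM final). The enzyme had 30 min RT exposure to compounds beforehand in Tris pH 8.0 buffer with CaCl2, CHAPS and beta-ME.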
Potency is the fitted concentration of half-maximal effect; tags give direction and shape of the fitted curve.

SMILES | Potency
COc1ccc(C(=O)C[N+]2(C)CCOCC2)cc1 | inactive
Cc1ccc(NS(=O)(=O)c2cccc(C(=O)OCC(=O)NCc3ccco3)c2)cc1 | inconclusive [inhibitor, partial curve, poor fit]
O=C1/C(=C/C=C/c2ccco2)SC(=S)N1c1ccc(O)cc1 | active: 3.55 µM
CC1=NN(c2ccc(C(=O)O)cc2)C(=O)/C1=C\c1ccc(OC(=O)c2cccs2)cc1 | inactive
CCOC(=O)N1CCN(C(=O)CN(c2ccc(C)c(C)c2)S(=O)(=O)c2ccccc2)CC1 | inactive
S=c1[nH]nc(-c2cc(-c3ccccc3)n[nH]2)n1/N=C/c1ccc(Br)s1 | inconclusive [inhibitor, partial curve, poor fit]
COC(=O)CSc1nc2c(c(-c3ccco3)c1C#N)CCCC2 | inconclusive [inhibitor, partial curve, poor fit]
NS(=O)(=O)c1ccc(CCNC(=O)c2cc3ccccc3s2)cc1 | inconclusive [inhibitor, single point]
N=C1C(c2nc3ccccc3c(=O)[nH]2)=C(O)CN1CCc1ccccc1 | inconclusive [inhibitor, partial curve]
O=C1Nc2ccc(S(=O)(=O)N3CCCCCC3)c3cccc1c23 | inactive
COc1ccc(OC)c(NC(=O)CSc2nc(O)cc(=O)n2CC(C)C)c1 | inconclusive [inhibitor, single point]
O=C(/C=C1\NC2(CCCC2)Cc2ccccc21)C(=O)N/N=C/c1ccc(O)c(O)c1 | active: 7.94 µM
COc1ccc(OCC(=O)Nc2ccccc2OC)cc1 | inactive
O=C(OCC1OC(n2ncc(=O)[nH]c2=O)C(OC(=O)c2ccccc2)C1OC(=O)c1ccccc1)c1ccccc1 (centres undefined) | active: 4.47 µM
CCCCCCCCCCOC(=O)Cn1c(COc2ccc(C)cc2)[n+](C)c2ccccc21 | inconclusive [inhibitor, single point]
CCN1C(=O)CSc2ccc(C(=O)NC3CCCCC3)cc21 | inactive
CSCC[C@H](NC(=O)C1CCN(S(=O)(=O)c2ccc(C)cc2)CC1)C(=O)NCc1ccco1 | inconclusive [inhibitor, partial curve, poor fit]

SMILES | Potency
CCOC(=O)CN1C(=O)S/C(=C/c2ccc(O)c([N+](=O)[O-])c2)C1=O | inactive
Cc1ccc(OCC(=O)Nc2ccc(N3CCCC3)cc2)cc1C | active: 10 µM
O=C(Nc1ncccc1Cl)c1cccc(F)c1 | inactive
COc1ccc(CNS(=O)(=O)c2ccc(S(=O)(=O)N3CCCCC3)cc2)cc1 | inconclusive [inhibitor, partial curve, poor fit]
Cc1ccc(C(=O)O/N=C/c2c(C(F)(F)F)nn(C)c2Sc2ccc(Cl)cc2)cc1 | inactive
O=C(Cc1ccc(S(=O)(=O)N2CCOCC2)s1)Nc1nc2c(s1)CCCC2 | active: 6.31 µM
O=C(COc1ccccc1)NCCSc1ccccc1 | inactive
COc1ccc(CCN2C(=O)/C(=C\c3ccco3)SC2=S)cc1OC | inactive
CCc1ccccc1OCC(=O)Nc1ccc(N2CCCC2)cc1C | inconclusive [inhibitor, single point]
CCCCCCCCCCCCCCCC[n+]1cccc(C(=O)N(CC)CC)c1 | inconclusive [inhibitor, partial curve, poor fit]
N#C/C(=C\c1ccc(O)c(O)c1)C(=O)Nc1cccc2ncccc12 | active: 2.24 µM
CCCCCCCC/C=C\CCCCCCCC(=O)NCCc1ccc(O)c(O)c1 | inconclusive [inhibitor, partial curve, poor fit]
CCOc1ccc(C(=O)c2ccc(OCC)c(N)c2)cc1N | inactive
COc1cc(/C=C(/C(=O)c2cccs2)c2nc3ccccc3[nH]2)ccc1O | inconclusive [inhibitor, single point]
O=C1NC(=Nc2ccc3ccccc3c2)S/C1=C/c1ccco1 | inconclusive [inhibitor, partial curve, poor fit]
O=C(N/N=C/c1ccc(Sc2ccccn2)o1)c1cc2ccccc2cc1O | inconclusive [inhibitor, single point]
O=C(O[C@@H]1OC2COC(=O)c3cc(O)c(O)c(O)c3-c3c(cc(O)c(O)c3O)C(=O)O[C@@H]([C@H]1O)[C@@H]2O)c1cc(O)c(O)c(O)c1 | active: 3.16 µM
